Reference: article PMC6212790
This is one part of the list. At the low end of the ranking the order means little.

What follows are sequences tested against T1, GST-Rok (full length) (UniProt O34857) (assay: protein binding microarray). Conditions: Rok is a gene silencer of Bacillus subtilis; high values mean tight binding; most listed sequences are background and not binding sites; double strand, one strand shown.
T1 sequence: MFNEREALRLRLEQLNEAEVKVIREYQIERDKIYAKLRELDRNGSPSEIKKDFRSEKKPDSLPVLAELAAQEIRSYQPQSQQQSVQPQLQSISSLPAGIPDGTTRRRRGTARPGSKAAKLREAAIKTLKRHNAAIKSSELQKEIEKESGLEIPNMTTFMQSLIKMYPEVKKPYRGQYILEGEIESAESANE
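Also: rank score from −0.5 (least bound) to 0.5 (best bound).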

Row | Sequence | binding signal
1 | AAGACTGA | -0.0101 E-score
2 | CTGACTCA | -0.0975 E-score
3 | ATTAGTGG | 0.117 E-score
4 | AAGATGGT | 0.0131 E-score
5 | ACCAGGAG | -0.203 E-score
6 | AGCCGGGC | -0.389 E-score
7 | CCACCCTA | -0.188 E-score
8 | GCGCAGAA | -0.0702 E-score
9 | CCTCCAAG | -0.327 E-score
10 | ACCCATTC | 0.0548 E-score
11 | GTAAAAAA | 0.221 E-score
12 | AGATTAAG | 0.135 E-score
13 | ATAGCAGA | 0.144 E-score
14 | AGCAGCCT | -0.0527 E-score
15 | CTTGGGCC | -0.404 E-score
16 | CAACTCAC | -0.0111 E-score
17 | ATGCCCGC | -0.13 E-score
18 | CGGAAGGC | -0.439 E-score
19 | CACCCCTA | -0.273 E-score
20 | CAATAGGA | -0.172 E-score
21 | CCATGCAG | -0.0628 E-score
22 | AATGCGTG | 0.011 E-score
23 | CGTTAGAG | -0.103 E-score
24 | TAAGAGAA | 0.0944 E-score
25 | CCAGCCAA | -0.28 E-score

Row | Sequence | binding signal
26 | TAATTAGA | 0.28 E-score
27 | GTACCCAC | -0.0243 E-score
28 | AACGCCAT | 0.0623 E-score
29 | GTCCAGAA | -0.0598 E-score
30 | AGACCGCG | -0.227 E-score
31 | ACTTACCC | -0.106 E-score
32 | AACCTAGT | 0.283 E-score
33 | CCTTCCGA | -0.371 E-score
34 | ATTTTTAC | 0.335 E-score
35 | ACGACACG | -0.0491 E-score
36 | CCGTCCGC | -0.158 E-score
37 | GCTAACCC | -0.116 E-score
38 | CCGGTAAG | -8.86e-05 E-score
39 | ACCTACGG | -0.0536 E-score
40 | AATTAATT | 0.291 E-score
41 | CTATAGGA | 0.156 E-score
42 | AGACCACA | -0.0913 E-score
43 | GCGAGCCA | -0.183 E-score
44 | ATTACAGC | 0.19 E-score
45 | CCTAGATA | 0.101 E-score
46 | AGCGCGTC | -0.133 E-score
47 | AGGCGGCC | -0.446 E-score
48 | GTGTGTAA | 0.0808 E-score
49 | CGGAAAGC | -0.146 E-score
50 | CGGCGGTC | -0.184 E-score

Row | Sequence | binding signal
51 | CGACAGTA | 0.192 E-score
52 | CGTAGGGA | -0.218 E-score
53 | ATCACCAC | 0.0467 E-score
54 | CTCTCGTC | -0.255 E-score
55 | CGGTCACA | -0.0187 E-score
56 | ACCTTTCG | -0.0106 E-score
57 | GGTGGGGA | -0.398 E-score
58 | CTTTCGTC | -0.045 E-score
59 | AGTCTTAT | 0.185 E-score
60 | ATATTACC | 0.273 E-score
61 | CGCATAAC | 0.184 E-score
62 | TAGTAATA | 0.408 E-score
63 | AAGCGGCA | -0.133 E-score
64 | AACTTAAG | 0.0622 E-score
65 | GGAAATGA | 0.0579 E-score
66 | CGTCTAAA | -0.027 E-score
67 | CACTGTAG | 0.0728 E-score
68 | CTTTGTTC | -0.0972 E-score
69 | CTGTTATC | -0.0552 E-score
70 | CAGCCTTA | -0.113 E-score
71 | ACATGGCA | 0.0934 E-score
72 | AACAGCTA | 0.161 E-score
73 | GTCCTGGA | -0.0873 E-score
74 | ACATTCAG | 0.118 E-score
75 | CAGGCTCG | -0.325 E-score

Row | Sequence | binding signal
76 | ATTTTGTC | 0.123 E-score
77 | AGAGGCGA | -0.0227 E-score
78 | ACGGTGGC | -0.0906 E-score
79 | CGTTAAAA | 0.118 E-score
80 | AAGTGGTC | -0.0764 E-score
81 | CAGGCCAG | -0.143 E-score
82 | CTTTACTC | -0.0813 E-score
83 | AAGGAAGT | -0.269 E-score
84 | CCCTTAAC | -0.134 E-score
85 | CACGGCTG | -0.157 E-score
86 | CTTGCGTC | -0.102 E-score
87 | ATGCACAT | 0.215 E-score
88 | ACCCAGGG | -0.309 E-score
89 | GGGGGATA | -0.354 E-score
90 | ATGGGTAC | -0.0403 E-score
91 | TATGCCCA | -0.222 E-score
92 | AATTAGAG | 0.157 E-score
93 | CATGCTCC | -0.226 E-score
94 | CTTCACCC | -0.126 E-score
95 | TAATTGCA | 0.157 E-score
96 | ATTGTGGG | -0.0544 E-score
97 | GGAGCTCC | -0.0169 E-score
98 | CAGCAGTA | 0.0249 E-score
99 | CTGACGGA | -0.238 E-score
100 | GCCAGGCC | -0.244 E-score

Row | Sequence | binding signal
101 | CCACTAAG | -0.137 E-score
102 | ATGCATCG | 0.00495 E-score
103 | CGATCGAC | 0.0109 E-score
104 | ATAAGCGG | -0.143 E-score
105 | CCAATATA | 0.306 E-score
106 | AGACACGG | 0.272 E-score
107 | CAAGGCCA | -0.323 E-score
108 | TGCCAACA | -0.174 E-score
109 | ATTGGGGG | -0.251 E-score
110 | AATACTCA | 0.174 E-score
111 | GCTGAGAA | -0.0856 E-score
112 | AAGTGAAT | -0.0107 E-score
113 | CCCACTCC | -0.31 E-score
114 | CCATTGGA | -0.102 E-score
115 | GCCCTCTA | -0.253 E-score
116 | ATCCGGGG | -0.298 E-score
117 | ACAACATA | 0.0833 E-score
118 | AGTCCCTG | -0.255 E-score
119 | AGCTAGAA | 0.329 E-score
120 | GACTCAGA | -0.109 E-score
121 | GATAATGC | 0.248 E-score
122 | CTTTGTTA | 0.124 E-score
123 | AGGTGGAG | -0.241 E-score
124 | CCTGCACG | -0.111 E-score
125 | AGGGACCT | -0.364 E-score

Row | Sequence | binding signal
126 | CAGAGTTA | -0.0506 E-score
127 | ATCGTTGG | -0.063 E-score
128 | AAGAACCA | -0.0889 E-score
129 | TCTCGACA | -0.0144 E-score
130 | TAGCAGCA | 0.0346 E-score
131 | ATCCCGGA | -0.218 E-score
132 | GTAGTACA | 0.236 E-score
133 | CAATACTA | 0.261 E-score
134 | AAGTGGCC | -0.0526 E-score
135 | CAGGTTGC | -0.259 E-score
136 | TCACACCA | -0.000143 E-score
137 | CATGCTAC | 0.22 E-score
138 | GACAACTC | -0.181 E-score
139 | AGATTGTG | 0.104 E-score
140 | CTTATGGC | -0.0497 E-score
141 | AACTTCAC | -0.0432 E-score
142 | AGTCCCGA | -0.215 E-score
143 | GTCCTAGA | -0.0552 E-score
144 | ATTCTTTA | 0.201 E-score
145 | CTTACGTC | -0.135 E-score
146 | TATCTGCA | 0.102 E-score
147 | GTCATGAC | 0.07 E-score
148 | GTTCAACA | 0.106 E-score
149 | ATCCTTGC | -0.228 E-score
150 | CCTAGGGC | -0.314 E-score

Row | Sequence | binding signal
151 | ATATTAGC | 0.248 E-score
152 | GAAGACTA | 0.123 E-score
153 | CGTACAAC | 0.103 E-score
154 | ATTATGTC | 0.191 E-score
155 | CGGCTGTC | -0.298 E-score
156 | GTTTGGAA | 0.0901 E-score
157 | CTATTAAG | 0.139 E-score
158 | CTAAGACC | -0.172 E-score
159 | ATATGTTG | 0.16 E-score
160 | CACTTTAC | 0.0531 E-score
161 | CCCATGCC | -0.427 E-score
162 | ACTCCTAG | -0.132 E-score
163 | ATAGTGCA | 0.12 E-score
164 | AGCCAGAG | -0.173 E-score
165 | AGTAATAA | 0.197 E-score
166 | CAAGACCA | -0.175 E-score
167 | GCAAACCA | -0.161 E-score
168 | CGACTTAC | 0.229 E-score
169 | GGCACCAA | -0.179 E-score
170 | CCGCCTAG | -0.269 E-score
171 | ATGTGGAA | -0.0729 E-score
172 | CTATTAAA | 0.116 E-score
